In all, about 33,000 sequences were measured (“E-score (-0.5 to 0.5)”: median about -0.032, highest 2% from about 0.36 on). Some of the results follow.
Target: T1, Sko1 (UniProt Q02100)
T1 sequence: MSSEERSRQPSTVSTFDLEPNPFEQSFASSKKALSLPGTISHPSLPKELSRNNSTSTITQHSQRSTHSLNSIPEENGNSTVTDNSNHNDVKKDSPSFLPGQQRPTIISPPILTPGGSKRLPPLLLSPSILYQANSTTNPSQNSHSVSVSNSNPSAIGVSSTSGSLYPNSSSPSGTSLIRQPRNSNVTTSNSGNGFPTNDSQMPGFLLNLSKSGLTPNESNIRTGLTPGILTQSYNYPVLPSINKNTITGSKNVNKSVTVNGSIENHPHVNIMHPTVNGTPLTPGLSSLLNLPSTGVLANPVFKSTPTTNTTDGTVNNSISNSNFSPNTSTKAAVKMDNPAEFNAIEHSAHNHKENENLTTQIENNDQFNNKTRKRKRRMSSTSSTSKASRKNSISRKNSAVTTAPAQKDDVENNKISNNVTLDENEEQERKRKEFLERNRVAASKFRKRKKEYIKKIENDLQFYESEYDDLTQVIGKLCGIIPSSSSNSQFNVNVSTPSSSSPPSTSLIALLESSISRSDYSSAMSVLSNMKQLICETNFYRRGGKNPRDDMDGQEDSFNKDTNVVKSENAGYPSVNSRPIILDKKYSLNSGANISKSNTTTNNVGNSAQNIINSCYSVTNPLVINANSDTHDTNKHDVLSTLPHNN
Experiment: PBM E-score (8-mer binding enrichment) (E-score (-0.5 to 0.5)); higher = stronger / more preferred TF binding; most listed sequences are background and not binding sites
Conditions: protein concentration: 200 nM; construct: GST-full length
Summary of the method: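 E-scores (a modified Wilcoxon-Mann-Whitney statistic) were assigned by the Universal PBM Analysis Suite to every ungapped eight-base word pooled with its reverse complement. The input came from universal all-10-mer Agilent arrays made double-stranded by primer extension and probed with GST-tagged yeast transcription factors at about 100-200 nM. Fluorescent anti-GST detected bound protein, and masliner normalised the scans.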

Sequence	PBM E-score
ATGGGAAT	-0.071
GCATGCCA	-0.187
CAAAGGCA	-0.109
TCGTCCAA	-0.0467
ACTATACT	-0.0265
TTCCCCAA	-0.108
CAAGTTAA	0.0734
CGGTACCC	-0.307
CCCAGCAG	-0.182
AACTGGCA	-0.0966
CCGCATGC	-0.284
AACTCAAT	0.124
GCGAATAC	0.111
AACAATGG	0.00677
TAGACAAA	0.107
AATGTTCG	0.0246
CCAGGCCA	-0.271
CCGTCCCC	-0.327
ATCTCTAG	-0.0619
ATACTTTA	0.107
CTGCATAC	-0.0108
AGAGCAGG	-0.126
TATCGAGA	0.0604
ACAAGACT	-0.122
CCCAGGGG	-0.245

Sequence	PBM E-score
GGTAGCCA	-0.238
GGTTGCGA	-0.0606
CGGGGTTA	-0.0864
AATGTTGC	0.159
ATAGCAAT	0.188
AAGTTGCG	0.18
CCCGCTCC	-0.312
CAGGCACG	-0.0439
AGATTGGC	-0.0878
AAGGCCGC	-0.133
CTTGATTA	0.0169
ATAGAGTG	-0.0804
CTATATCA	0.0782
AAATTCGG	-0.0392
GGTGGACA	-0.241
AAAATGTA	0.146
ACGTTCGA	0.248
AGATGAAC	0.0859
ATGACCAG	-0.0544
CAGGATAC	0.0384
TAGGGAAA	0.0498
CTGTGTAA	0.148
AATCATAT	0.21
AAGCCTCC	-0.294
GTGACAAC	0.183

Sequence	PBM E-score
CTTTCATA	0.257
CCGGCGCC	-0.138
AAAATAGG	0.0674
GAGATGAA	-0.00284
GCTAGAGA	-0.0277
ACGGTTCG	-0.214
GAAAGACC	-0.261
CGACTCTC	-0.231
TACACAAA	0.206
CCGCCAAA	-0.0781
AACTACAC	0.231
CCACCCAG	-0.209
AATAGCTA	0.154
GGGGTAGA	-0.0788
GCTCTTAA	-0.0131
CCTGTGAA	0.0504
GATAGTCA	-0.045
GTATGGAA	0.00841
ATCTATAA	0.199
AAAGCATA	0.147
CATATTCC	-0.0554
CAGGTACA	-0.0464
GGGCTCCA	-0.295
ATGTACAC	0.202
CCCGGGGC	-0.329

Sequence	PBM E-score
CCCTGACG	0.191
GAACCATC	-0.0679
CACGCGGA	-0.00935
AACTCAGT	-0.155
GCGGATAA	-0.105
GACCAAAA	0.112
GGATTCAC	-0.215
ATTGGCTG	-0.05
AGGCCTCC	-0.309
CGGCTCAA	-0.146
TCACCTCA	0.236
TATTGTAA	0.0735
AGCCCTAG	-0.134
GCTAACCA	-0.251
CGTGATGA	0.36
ATGCTAAT	0.209
CATTAAAA	0.16
CGCCGGGC	-0.215
GGAGGCCC	-0.241
AAGTCGCT	-0.133
GAGCTTAC	-0.0218
CTTCGAGC	-0.0643
AAAATCTC	-0.0523
GCCAAGAC	-0.0143
CTGACCAC	-0.151

Sequence	PBM E-score
ATTCGCCA	0.0648
CCAAACTC	-0.0112
AACGCTCG	0.139
CGACCTAC	-0.0588
ACCCGCGC	0.0645
GATGGGGC	-0.179
GGCCTACA	-0.116
AAAATCGC	0.0693
CGGGGAAC	-0.209
CCGTACAG	-0.22
GTTACTAA	0.263
CTGTTCGC	-0.00955
CTGGGGTA	-0.251
GCCCACCC	0.0115
ATACCGTA	0.162
CTTAGATA	0.141
GTCGGGTA	-0.0683
GGGTCTAA	-0.21
AATCGCCT	-0.0272
ATGGCCAT	-0.253
GTTGTGAA	0.208
ACGGGAAT	-0.0502
CTATTGTC	-0.0945
TCCTCTCA	-0.105
GATGGAAA	0.0551

Sequence	PBM E-score
ACCAAGTA	0.0459
ACGGCAGG	-0.297
ATTTACTA	0.117
GTATATGA	0.269
GGGTTCAA	-0.166
ATTTTTCG	0.164
CCGGATAA	-0.0431
GTTGGAGA	-0.00906
CTCTCCCA	-0.407
ACGATAGG	-0.198
AGAGTAAC	-0.0287
GACGTTAA	0.368
TCAACTAA	0.138
GTCTGGCA	-0.208
AACTTAGG	0.00099
GGGTGCGA	-0.23
TGTTCAAA	0.0209
AGGTGTCA	0.0726
CCGAAAAA	0.128
CCATACAA	0.0328
GTTCAGGA	-0.0181
AAAAATCA	0.0972
GAGACGAC	-0.0563
CAAATTAC	0.258
CTTAGGAA	0.0777

Sequence	PBM E-score
ACCCGAAG	-0.229
CACTTTCC	-0.0386
GCGTTAGC	0.0592
ACCGTAGT	-0.122
TGTGTAAA	0.266
ATGAATTC	0.0634
AAACCCAA	0.026
CAATCACA	0.153
AACAATCA	0.297
ATCATAGG	0.18
AGAGGCCA	-0.195
GACTCCTC	-0.315
AGTGCGAG	-0.108
TCGTCTAA	0.101
CCGGGATC	-0.193
ATCGTGGG	0.114
TGTCCCAA	-0.00701
AGCCCGAT	0.0246
ATAGTCTG	-0.0553
CGTATCTC	0.26
AGCGGTAA	-0.112
AGTTAGCA	0.0512
ACTATACG	0.27
ATAGGCAC	0.0356
ACAATAGG	-0.097

Sequence	PBM E-score
ACCAGAGG	-0.225
AATGCATA	0.0709
AATAAAGA	0.201
CACAGCCC	-0.316
CAAACCGA	-0.0133
GTGAAGGA	-0.0285
ATGAACAC	0.0929
ACGAAAAT	0.331
AAAAATTT	0.177
GCAAAGAA	-0.123
ATACGATG	0.275
AGGGCAAG	-0.141
GCTTCGCA	-0.0198
AACAGGGG	-0.349
GAGCGAGC	0.0109
ACGTATGG	0.441
ACTTCAAG	0.15
ACTGTCTA	0.161
ACTCTCAG	-0.00339
GACAAGCC	-0.128
ACCCTGCT	-0.326
CGTCGACA	0.205
CATACAAG	0.0813
GGAATTAA	0.2
GGTCAGAA	-0.206

Sequence	PBM E-score
CCGGAAAC	-0.069
CCATGAGC	-0.178
CTCCGAAC	-0.214
ATGTGTTG	0.203
AACCCGCA	-0.194
AGGCTTGG	-0.168
GAGTCGAC	-0.0428
ATAAATCG	0.119
AGAAAGTC	-0.163
ACATAGTC	0.0801
ACCTGTGC	-0.144
GGTTGCTA	-0.024
CGAGTGAG	-0.158
GTCTTCGA	-0.0774
AAGAGTGA	0.0204
TCTCCAGA	-0.2
GCGTCATA	0.481
AGAACACT	0.0611
CTACCAAA	0.00063
ATAGCGAG	-0.0959
GACAGGGC	-0.196
GACTGGGA	-0.208
ACTCAGCA	-0.0686
CTCGTCGC	-0.106
AGGTCAAA	0.00674

Sequence	PBM E-score
CTCCCAAC	-0.218
GTCGGATA	0.0725
ACTATATC	0.0886
ATGGAGAG	-0.0532
CGAGGCCA	-0.21
CATAGCTA	-0.0746
AATCTCCT	-0.137
GGGGACCC	-0.397
AGGCGACG	-0.0981
CCCGTGAC	0.109
TCAGTCAA	0.0227
GATTGCGC	0.101
CGCGGAAC	-0.165
GGCGACAA	-0.251
ACAGCCAA	-0.1
CAGGGCGC	-0.208
CCCTAAGG	-0.34
AGTGTAAG	-0.158
ACAAGGGC	-0.291
AGCGGAGA	0.0679
ATTTTGGC	0.11
ACAGGCCA	-0.285
ACTTTAAC	-0.115
ACTGGTTA	0.0712
CAGTTGTA	-0.082

Sequence	PBM E-score
CGTCAATC	0.365
ATATCCCA	0.00152
AGAAGTAG	-0.0407
TACCCCGA	-0.221
GTACAAAA	0.236
ACTCAAGG	-0.251
CAACGTTC	0.101
ATTTCACC	0.0643
CTTTCCTA	-0.257
AGGTTGGA	-0.00974
ATCGTGTG	0.0593
CTGTTGAA	-0.0366
CCGTTGAC	-0.0856
ACCGTCTC	0.027
ACACCTAC	-0.0103
AAAGATCA	0.142
ACCGACCA	-0.0462
ATCAAGGA	-0.0586
ATGTAAAA	0.211
CCTTTCCC	-0.184
CCATCTCG	-0.145
CTGGTGTA	-0.0341
ACGATTGG	0.116
AGGGAGCG	-0.363
ATGCCTTC	-0.192

Sequence	PBM E-score
AGCGGTTA	-0.0513
ATATTCAT	0.224
CATACCGG	-0.183
AAAATCAG	0.0818
ATGGATTG	0.174
CTTATCAA	0.142
CTCTTATC	0.125
CAAGGTAA	0.0248
AGTACTAC	0.329
GCTCTACA	-0.192
GGCTGGCA	-0.303
AGAGAAGC	-0.242
AACCATCA	0.132
ATTCATAC	0.124
CTAAAAAA	0.153
ATGAGTGC	0.0631
ATGCAAAT	0.0767
GATTTTAA	0.19
ACAACAGG	0.0881
CTGCACAG	-0.197
AGTTTTGC	0.146
CGGACTAA	0.079
GGGAAGAC	-0.185
TAGCTAAA	0.159
AGGGATGG	-0.156

Sequence	PBM E-score
CACACCAG	-0.0143
AATCCCCA	-0.0808
ACGACGCA	0.334
CTTCGGGC	-0.279
GGTACTAC	-0.0599
GCGAAGCA	0.0215
AGTAGCCC	-0.34
CGCAGTTC	0.0781
CCACTAAG	-0.166
AGTGGCAT	-0.16
TATTGGGA	-0.00016
GGAGGACC	-0.284
AGATTTTA	0.0718
AGGACTGC	-0.25
AGACTCAG	-0.217
CACCGATG	0.152
CCCGATTA	0.0149
GAATTCAC	0.101
GTATCCAA	-0.0692
AAATTAGA	0.174
TCCAATCA	-0.109
CTCGTTGA	-0.137
CACCGGAA	-0.0491
CCATGTGA	-0.12
ATTGACAG	-0.0166

Sequence	PBM E-score
GAAAGTCC	-0.309
ACCTTTGA	-0.162
GCAATCGA	0.123
ACCAGCGA	-0.19
CGGGTAAC	-0.215
ATTACGCG	0.431
ATCCTCAA	0.0793
CAGCCGCA	-0.311
ACAAGGGT	-0.0251
GGAACTCA	-0.237
TCATGGAA	0.191
AGTAGCAC	-0.0478
ACATGGGT	0.0626
AAGGATAG	-0.0679
CTGACCGC	-0.239
TCATAGGA	0.191
TAAAGAAA	0.179
AGCTACGC	0.146
ACGAACGC	0.149

From the supplement of paper PMC3334620
